# From PMC4336329 (PLoS ONE, 2015)
# The campaign covered roughly 310,000 compounds. About 14,000 (4.5%) showed an effect of 50% or more. The effect is printed as a negative number. The list shows a part of the results.
# Target: human ether-à-go-go-related gene (hERG) potassium channel (human, UniProt Q12809)
# Assay: primary screen, population patch clamp on CHO cells stably expressing hERG
# 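Further: peak tail current of the secondary pulse compared with the same well before compound.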
# Sequence of human ether-à-go-go-related gene (hERG) potassium channel (Q12809 whole entry, looked up): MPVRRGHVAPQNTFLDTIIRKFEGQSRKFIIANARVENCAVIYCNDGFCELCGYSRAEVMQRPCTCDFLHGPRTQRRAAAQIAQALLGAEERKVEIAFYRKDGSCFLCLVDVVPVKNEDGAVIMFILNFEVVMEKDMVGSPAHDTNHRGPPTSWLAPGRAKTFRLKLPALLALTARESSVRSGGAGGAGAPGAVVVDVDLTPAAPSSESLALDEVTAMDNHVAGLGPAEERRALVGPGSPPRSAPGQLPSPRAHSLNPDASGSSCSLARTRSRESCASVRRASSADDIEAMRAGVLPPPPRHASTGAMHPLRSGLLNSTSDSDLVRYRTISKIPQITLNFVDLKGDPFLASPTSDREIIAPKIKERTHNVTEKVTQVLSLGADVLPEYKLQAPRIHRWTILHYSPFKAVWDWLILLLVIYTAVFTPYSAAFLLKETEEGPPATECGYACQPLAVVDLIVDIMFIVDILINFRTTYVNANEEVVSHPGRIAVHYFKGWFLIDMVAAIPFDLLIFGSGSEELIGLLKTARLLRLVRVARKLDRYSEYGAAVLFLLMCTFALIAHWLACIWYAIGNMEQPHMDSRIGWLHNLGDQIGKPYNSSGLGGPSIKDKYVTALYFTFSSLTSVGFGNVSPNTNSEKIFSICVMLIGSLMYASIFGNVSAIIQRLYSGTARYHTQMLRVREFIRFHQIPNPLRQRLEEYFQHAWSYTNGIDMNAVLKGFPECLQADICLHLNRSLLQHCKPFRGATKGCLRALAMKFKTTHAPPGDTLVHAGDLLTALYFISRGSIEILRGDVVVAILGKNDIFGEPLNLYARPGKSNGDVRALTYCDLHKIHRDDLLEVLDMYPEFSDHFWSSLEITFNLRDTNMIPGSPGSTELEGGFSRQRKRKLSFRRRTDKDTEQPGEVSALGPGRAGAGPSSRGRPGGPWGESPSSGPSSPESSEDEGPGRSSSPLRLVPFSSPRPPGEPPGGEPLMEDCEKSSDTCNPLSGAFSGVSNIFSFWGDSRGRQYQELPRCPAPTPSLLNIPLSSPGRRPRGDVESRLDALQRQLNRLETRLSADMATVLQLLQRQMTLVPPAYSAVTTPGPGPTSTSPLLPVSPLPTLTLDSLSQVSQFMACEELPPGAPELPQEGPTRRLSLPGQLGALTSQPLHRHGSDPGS
row,Compound,"hERG current change (%, negative = inhibition) at 10uM [%]"
1,O=c1nc(-c2ccccc2)c2cc(Br)ccc2[nH]1,-6.26
2,CCOc1ccc(CCNC(=O)COC(=O)c2cccnc2OCC)cc1OCC,-1.87
3,CCc1c(C)c(C#N)c2nc3ccccc3n2c1NC,4.55
4,COC(=O)C1=C(c2cc3ccccc3o2)C[C@@H]2CC[C@H]1N2C(=O)NCCO,16
5,S=C(Nc1ccccc1)N1CCCCCC1,10.4
6,COc1ccc([N+](=O)[O-])cc1NC(=O)Nc1cccc(Cl)c1,4.75
7,CSc1cccc(NS(=O)(=O)c2cc(Br)cnc2N)c1,-27.5
8,COc1ccc(NC(=O)c2sc3nc(N4CCOCC4)c4c(c3c2N)CC(C)(C)OC4)c(OC)c1,15.2
9,CC1C=CCC2C(=O)N(c3ccc(OC(=O)c4ccco4)cc3)C(=O)C12 (stereo not drawn),-3.79
10,COc1ccccc1NC(=O)c1ccc2c(c1)OCO2,10.6
11,Cc1ccc(S(=O)(=O)N2CCN(C(=O)c3cc4c(s3)CCCC4)CC2)cc1,8.26
12,O=C(O)CC1S/C(=N/N=C/C2CC=CCC2)NC1=O (stereo not drawn),15.6
13,Cc1ccc(N2C(N)=C(C#N)C(c3cccnc3)C3=C2CC(C)(C)CC3=O)cc1 (stereo not drawn),0.65
14,O=c1c2ccccc2[nH]c(=S)n1CCCN1CCN(C2CCCCC2)CC1,-53.9
15,Cc1c(NC(=O)CSc2nc3ccccc3c(=O)n2C(C)C)c(=O)n(-c2ccccc2)n1C,-8.25
16,Cc1ccc(-c2n[nH]c(=S)n2/N=C/c2cc3c(cc2[N+](=O)[O-])OCO3)cc1,20.4
17,O=C(CN1C(=O)COc2ccccc21)N1CCc2ccccc2C1,5.63
18,O=C(Nc1ccccc1)C1=C[C@@H](c2ccc(C(F)(F)F)cc2)C[C@@H](OCCCCO)O1,-2.91
19,CCNc1nc(NCC)nc(N2CC(=O)N(CC(=O)OCC)C2=N)n1,-2.36
20,Nc1nc(-c2ccc(Cl)cc2)nnc1-c1ccc(Br)cc1,41
21,COCCC(=O)N1CCC(Oc2ccc(C(=O)N3C[C@H]4CC[C@H]3C4)cc2)CC1,13
22,COc1ccc(NC(=O)CSc2nnc3ccc(-c4cccnc4)nn23)cc1,-46.4

row,Compound,"hERG current change (%, negative = inhibition) at 10uM [%]"
1,Cc1cc(-c2nc3ncccc3o2)ccc1NC(=O)CC(C)C,-17.1
2,Cc1ccc(C)c2nc(SCC(=O)Nc3ccc4c(c3)OCO4)c(C#N)cc12,5.6
3,CCOc1ccccc1NC(=O)CSc1nnc(Cc2ccc(OC)cc2)c(=O)n1N,-26.7
4,O=C1NC(=S)/C(=C\c2ccc(-c3ccccc3Cl)o2)S1,16.2
5,CC(=NCCC1=CCCCC1)c1c(O)n(C)c(=O)n(C)c1=O,-5.8
6,CSc1nc(Oc2ccc(F)cc2F)cc(C(F)(F)F)n1,14.2
7,CC1(C)C([N+](=O)[O-])C(c2ccc(O)cc2)NC(c2ccc(O)cc2)C1[N+](=O)[O-] (stereo not drawn),-3.25
8,Cn1c(N)c(C(=O)COC(=O)C2CCC(C(C)(C)C)CC2)c(=O)n(C)c1=O (stereo not drawn),-15
9,Cc1cc(C)c(S(C)(=O)=O)c(N(C)NC(=O)c2c(F)cccc2F)n1,19.5
10,O=C(CCCCCN1C(=O)[C@@H]2Cc3ccccc3CN2C1=O)N[C@@H](Cc1ccc(O)cc1)C(=O)O,1.02
11,CCOc1ccc(CCNS(=O)(=O)c2c(C)nc3scc(C)n3c2=O)cc1OCC,-13.7
12,CCCn1nnnc1NCc1ccc(N2CCCC2)cc1,-10.6
13,O=C(COc1ccc(Br)cc1)NCCNC(=O)c1ccncc1,-34
14,CNC(=O)N(O)C1N(/N=C/c2ccc(N(C)C)cc2)C(=S)SC1(C)C (stereo not drawn),31.5
15,C=CCn1c(SCn2nnc3ccccc3c2=O)nnc1-c1ccc(Cl)cc1,-61.2
16,CC(C)CC(=O)Nc1ccc2ccccc2c1,4.3
17,O=C(/C=C/c1ccco1)NC(=S)Nc1ccccc1N1CCOCC1,-7.73
18,CCOC(=O)c1c(NC(=O)CCS(=O)(=O)c2ccccc2)sc2c1CCN(C)C2.Cl,-52.5
19,Cc1cc(=O)n2[nH]c(C)c(-c3ccc(Cl)cc3)c2n1,3.91
20,CC1CCCCN1CCCNC(=O)C1CCN(c2nnc(-n3cccc3)s2)CC1 (stereo not drawn),-27.1
21,CC1=CC(C)(C)N(C(=O)CSc2nnc(N)s2)c2ccccc21,6.19
22,CCN(C(=O)CN1C(=O)S/C(=C\c2ccccc2OC)C1=O)C1CCS(=O)(=O)C1 (stereo not drawn),3.22

row,Compound,"hERG current change (%, negative = inhibition) at 10uM [%]"
1,O=c1c2cnn(-c3ccccc3)c2ncn1Cc1ccco1,-7.57
2,COc1ccc(CCN2CC(C(=O)NCCc3ccc(F)cc3)CCC2=O)cc1 (stereo not drawn),-22
3,Cc1ccc(/C=N/Nc2ccnc3cc(Cl)ccc23)c(C)c1,4.13
4,O=C1ON=C(c2ccccc2)/C1=C/c1ccc(OS(=O)(=O)c2ccccc2)cc1,12.8
5,Cc1cc(=O)oc2ccc(OCC(=O)N3CCc4ccccc43)cc12,-5.88
6,CC(OC(=O)c1cc2sccc2n1C)C(=O)NCc1ccco1 (stereo not drawn),-12.7
7,Nc1cc(C(=O)OCC(=O)NCc2ccc(F)cc2)ccc1Cl,-11.2
8,CCc1ccc2[nH]c(=O)c(CN(Cc3nnnn3C3CCCC3)C3CCCCC3)cc2c1,-13.4
9,COc1cccc(N2C(=O)CN(Cc3cc(OC)c(OC)c(OC)c3)C2=S)c1,13.1
10,Cc1ccc(OCCN(C)C(=O)C2CCC(=O)N(CCCN3CCCC3=O)C2)cc1 (stereo not drawn),11.3
11,CCOC(=O)c1sc(NC(=O)CCN2CCCCCC2)c(C(=O)OCC)c1C,-24.7
12,N#CCCN(Cc1ccccc1)C(=S)NC(=O)c1ccccc1,6.65
13,COc1ccc(NC(=O)CSc2nnc(C)c3ccccc23)cc1,18.8
14,C=CCN1C(=O)C(Cc2ccc(OC)cc2)S/C1=N\N=C\c1cccs1 (stereo not drawn),13.1
15,CCOC(=O)c1c(NC(=O)c2ccn(CC)n2)sc2c1CCC2,22.6
16,CCN1C(=O)/C(=C/c2ccc(C)o2)N(C)C1=S,11.5
17,CN(C)C(=O)Oc1cccc([N+](C)(C)C)c1.[Br-],11.5
18,O=C1NC(c2ccco2)Nc2sc3c(c21)CCN(Cc1ccccc1)C3 (stereo not drawn),-22
19,CC(C)c1ccc(NC2CCCN(C(=O)c3ccccc3-c3ncc[nH]3)C2)cc1 (stereo not drawn),-8.01
20,Cc1c(OCC(=O)N[C@@H](Cc2c[nH]c3ccccc23)C(=O)O)ccc2c1oc(=O)c1ccccc12,5.16
21,Cc1ccc(OCC(=O)N2CCN(S(=O)(=O)c3ccccc3[N+](=O)[O-])CC2)cc1,-25.9
22,N#CCCn1c(=S)[nH]c2ccccc21,12.9

row,Compound,"hERG current change (%, negative = inhibition) at 10uM [%]"
1,Cc1ccc(CCN2CC(C(=O)NC3CCCC3)CC2=O)cc1 (stereo not drawn),6.17
2,COc1ccc(/C=N/NC(=O)OC(C)(C)C)cc1OC,-3.75
3,Nc1ncc(CN2CCCC(C(=O)Nc3ccc(-c4ccco4)cc3)C2)cn1 (stereo not drawn),-17.8
4,Cc1cc(=O)c2cc3nc(-c4cccnc4)oc3c(Br)c2o1,9.18
5,COc1ccccc1C(CNC(=O)c1cccc(NS(=O)(=O)c2ccc(C)c(F)c2)c1)N(C)C (stereo not drawn),-42.5
6,CCOC(=O)Cn1c(=NC(=O)c2nc3ccccc3s2)sc2cc(S(N)(=O)=O)ccc21,17.9
7,COc1ccc(/C=N/N=C2/SCC(=O)N2Cc2ccccc2)cc1,-5.18
8,Cc1sc2c(c1C)c(=O)n(-c1ccccc1)c(=O)n2CC(=O)NCC1CCCO1 (stereo not drawn),4.3
9,Cn1c(N/N=C/c2cccs2)cc(=O)n(C)c1=O,9.45
10,COC(=O)c1ccc(NC(=O)C(OC)c2ccccc2)cc1 (stereo not drawn),7.04
11,COc1ccc(N(C(=O)Cc2cccs2)C(C(=O)NC2CCCCC2)c2cccn2C)cc1 (stereo not drawn),-2.49
12,CCN(CC)S(=O)(=O)c1ccc(NC(=O)Cn2cnc3ccccc3c2=O)cc1,-32.8
13,CC(C)C/C=C1\CCc2c([nH]c3ccccc23)C1=O,25.1
14,Cc1cccc(NC(=O)CCc2ccc(C)o2)c1,-2.73
15,COc1ccc(NC(=O)N2CCCC(C(=O)NCCc3ccccc3)C2)cc1 (stereo not drawn),7.68
16,O=S(=O)(Nc1cccc(-n2cnnn2)c1)c1ccccc1C(F)(F)F,12
17,COc1ccc(NC(=O)c2ccccc2N2C(=O)C3C4C=CC(C5CC45)C3C2=O)c(OC)c1 (stereo not drawn),5.63
18,O=C(O)c1cc(N=Cc2c(O)c3ccccc3oc2=O)ccc1O,9.48
19,CCCCn1c(NC(=O)c2ccc(Br)o2)c(S(=O)(=O)c2ccccc2)c2nc3ccccc3nc21,-0.885
20,Cc1ccc(S(=O)(=O)N2CCCCC2CCNC(=O)C(=O)NCc2ccco2)cc1 (stereo not drawn),-33
21,Cc1ccnc(NS(=O)(=O)c2ccc(NC(=O)C3C4C=CC(C4)C3C(=O)O)cc2)n1 (stereo not drawn),27.7
